Assay results published in PubChem BioAssay AID1240 (Sanford-Burnham Center for Chemical Genomics, 2008).
Among all 50,000 compounds or so, about 800 (1.6%) showed an effect of 50% or more. The list shows a part of the results.

Molecular target: Bcl-2-like protein 10 (Homo sapiens) (UniProt Q9HD36)
Assay: TR3 peptide-Bcl-B binding displacers, biochemical primary FP assay, phenotype converters (AID 1240);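 further: 0% = Bcl-B with tracer peptide and DMSO and 100% = tracer peptide lacking Bcl-B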
Conditions: GST-Bcl-B / FITC-TR3 peptide fluorescence polarization; stronger effect = higher value; compound at 3.75 mg/L

Chain of UniProt Q9HD36 (Q9HD36 whole entry, looked up): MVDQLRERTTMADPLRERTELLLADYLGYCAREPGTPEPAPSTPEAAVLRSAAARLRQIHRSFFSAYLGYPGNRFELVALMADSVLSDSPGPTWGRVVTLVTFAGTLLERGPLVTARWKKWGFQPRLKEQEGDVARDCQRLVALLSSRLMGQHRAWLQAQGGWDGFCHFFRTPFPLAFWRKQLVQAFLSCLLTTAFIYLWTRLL

Structure (SMILES) | displacement
O=C(Nc1c(C(=O)NCc2ccccc2)cnn1-c1ccccc1)c1cccc(F)c1 | -1.5%
Cc1ccc(C(=O)Oc2ccccc2C(=S)N2CCOCC2)cc1 | 9.1%
CC(C)(C)C1(C)OC(O)(C(F)(F)C(F)F)CC1=O (stereo unspecified) | -9.2%
Cc1c(NC(=O)/C=C\C(=O)O)c(=O)n(-c2ccccc2)n1C | -3.5%
COc1ccc(S(=O)(=O)N2CCN(C3CCCCC3)CC2)cc1 | 3.8%
O=C(Cc1ccc(Cl)cc1)Nc1cccc([N+](=O)[O-])c1 | 6.5%
COc1ccc2c(C)cc(=O)oc2c1C | 2.7%
Cc1onc(C(=O)N2CCC(C(N)=O)CC2)c1-c1ccccc1Cl | -5%
COc1ccc(C(C)NC(=O)CCc2ccccc2)cc1 (stereo unspecified) | -3.5%
O=C(Cc1ccccc1)NCC1CCCO1 (stereo unspecified) | -9.3%
O=C(Nc1nc2ccccc2n1Cc1ccccc1Cl)c1ccc(Cl)cc1 | 9.4%
COc1ccccc1C(=O)Nc1nnc(-c2ccco2)s1 | -2.8%
CCN(CC)/C(=C\C(=O)c1ccc(C)cc1)c1ccccc1 | -14.8%
Cc1cc(C)c(/C=c2\sc3nc4cc(Br)cnc4n3c2=O)cc1C | 0.7%
COc1ccc(C2Nc3ccccc3C(=O)N2c2ccccc2)cc1Cn1nc(C)c(Cl)c1C (stereo unspecified) | -2.4%
CCOC(=O)C1=C(c2ccccc2)N=C2SCC(=O)N2C1c1cccc(OC)c1OC (stereo unspecified) | 3.9%
Clc1ccccc1-c1nc(Cc2ccccc2)no1 | -2.2%
Cc1ccc(C(=O)COC(=O)c2ccccc2)cc1 | -2.8%
N/C(=N\OC(=O)c1ccc2ccccc2c1)c1ccccn1 | -1%
CC(=O)N(c1ccccc1)C1CC(C)Nc2ccccc21 (stereo unspecified) | -3.6%
O=Cc1ccc(-c2ccc(Cl)c(C(=O)O)c2)o1 | 5.2%
Cc1ccc(C2/C(=C(/O)c3ccccc3)C(=O)C(=O)N2CC2CCCO2)cc1 (stereo unspecified) | -15.1%
COc1cc(/C=C2\SC(=NCc3ccccc3)N(Cc3ccccc3)C2=O)cc(Br)c1O | -5.7%
O=C(O)CSCC(=O)c1ccccc1 | -0.2%

Structure (SMILES) | displacement
O=C(/C=C/c1cccs1)N1CCN(c2ccccc2)CC1 | -16.4%
O=C(c1ccc(C#CC2(O)CCCCC2)cc1)N1CCN(c2ccccc2Cl)CC1 | -13.4%
CCn1c(C(O)c2ccc(OCc3ccccc3)c(OC)c2)nc2ccccc21 (stereo unspecified) | 2.7%
O=[N+]([O-])c1ccc(N/N=C\c2ccc(N3CCOCC3)o2)nc1 | -18.1%
Cc1ccc(S(=O)(=O)c2c(N)n(CCO)c3nc4ccccc4nc23)cc1 | 12.6%
COCCOC(=O)c1ccc(NC(=O)COc2ccc(Cl)cc2)cc1 | -4.5%
CC1=NN(c2ccccc2)C(=O)/C1=C\c1c(O)n(-c2ccc(F)cc2)[nH]c1=O | 0%
O=C1c2cccc3cccc(c23)C(=O)N1CCN1CCN(S(=O)(=O)c2cccc3cccnc23)CC1 | -2.6%
Cc1ccc(C(O)c2nc3ccccc3n2C)cc1 (stereo unspecified) | -11.1%
COc1ccc(N(CC(=O)N2CCOCC2)S(=O)(=O)c2ccccc2)cc1 | 24%
O=C(NC(=S)Nc1ccccc1SC(F)(F)C(F)(F)C(F)(F)F)c1cccs1 | -9.7%
COC(=O)C1=C(C(=O)OC)SC(=C2C(=S)C(C)(C)N(C(=O)c3ccccc3F)c3cc(C)ccc32)S1 | -7.9%
O=C(CSc1n[nH]c(=O)[nH]c1=O)c1ccccc1[N+](=O)[O-] | -4.9%
Cc1cccc(/C=C(/C#N)C(=O)Nc2cccc(Br)c2)c1 | -3.7%
CC(=O)CC(=O)Nc1ccccc1-c1ccccc1 | -9.2%
CC(=O)c1cccc(NC(=O)COc2ccc(-c3ccc(C)cc3)cc2)c1 | 5.6%
O=C(Nc1cccc(C(F)(F)F)c1)C1CN(S(=O)(=O)c2ccccc2)CCN1S(=O)(=O)c1ccccc1 (stereo unspecified) | 8.8%
COc1ccc(Nc2ccccc2)c(C)c1 | -9.3%
O=c1[nH]c(=O)n(Cc2ccc(F)cc2)c(O)c1/C=C1/C=CC=N1 | 32%
COc1ccc(C=Nc2cccc(-c3cnc[nH]3)c2)cc1 | 1%
COc1nc(N=C(N)N)nc2c(C)cccc12 | -2.9%
COc1ccc(C2CC(C(F)(F)F)n3nc(C(=O)Nc4ccc5c(c4)OCO5)c(Cl)c3N2)cc1OC (stereo unspecified) | 15.9%
CN1CCN(C(=O)c2sc3cc(Cl)ccc3c2Cl)CC1 | 1%
COc1ccc(CCNC(=O)COc2ccc(OC)cc2)cc1 | 13.5%

Structure (SMILES) | displacement
O=C(NC(C(=O)O)C12CC3CC(CC(C3)C1)C2)c1ccc([N+](=O)[O-])cc1 (stereo unspecified) | -2.7%
O=C/C(=C\Nc1cccc(N/C=C(\C=O)c2nc3cc(Cl)ccc3o2)n1)c1nc2cc(Cl)ccc2o1 | 36.2%
Cc1cccc(N=C2NC(=O)CS2)c1C | 9.5%
CC(=O)CC(=O)Nc1ccccc1Br | 7.3%
O=S(=O)(NCCc1ccccc1)c1ccc2ccccc2c1 | 1.6%
CC1=C(C(=O)c2ccccc2)C(c2cccc([N+](=O)[O-])c2)NC(=O)N1 (stereo unspecified) | 1.1%
O=P(OCCN1CCOCC1)(c1ccccc1)c1ccccc1 | 18.9%
CCC(=O)Nc1cc(-c2nc3ccccc3o2)ccc1OC | -8.7%
CC1=C(C#N)c2nc(N)c(C#N)c(C)c2/C1=C/c1ccc(-c2ccc([N+](=O)[O-])cc2)o1 | -2.6%
CCc1cc(C)cc(OCCn2cc(C=C3C(=O)NC(=S)NC3=O)c3ccccc32)c1 | 14.7%
O=C1CN(C(=O)c2ccc(F)cc2)c2ccccc2N1 | 15.5%
O=C1N/C(=N\N=C\c2ccccc2O)SC1Cc1ccc(Br)cc1 (stereo unspecified) | -3.5%
O=C1/C(=C/c2ccc(F)cc2)SC(=S)N1c1ccc(F)cc1 | 11.8%
CC1C(C)C(O)(c2ccccc2)CCN1C (stereo unspecified) | -4.2%
O=C(CSCC(=O)Nc1ccc2c(c1)oc1ccccc12)Nc1ccccc1 | 0%
COc1ccc(-c2cc(C3CC3)nc(SC)c2C#N)cc1 | 0.1%
Cc1c(NC(=O)C2(C)CCCCC2)c(=O)n(-c2ccccc2)n1C | 5.8%
O=C(Nc1ccccc1Cl)c1ccc2ccccc2n1 | 1%
CC(=O)OC1(C[N+](=O)[O-])C2CC3CC(C2)CC1C3 (stereo unspecified) | -4.7%
CCOC(=O)C1=C(O)/C(=C/c2ccc(OCC(N)=O)cc2)N=C1C | 40%
Cc1ccc(C(O)(c2ccccc2)c2ccccc2C(C)N(C)C)c(C)c1 (stereo unspecified) | 3%
O=C1CCCC(=O)C1c1cc(NS(=O)(=O)c2ccccc2)ccc1NS(=O)(=O)c1ccccc1 | 6.1%
CC(=O)c1c(N2CCCC2)nc(=S)n(-c2ccccc2)c1C | 1.1%
